# The supplement of paper PMC3334620
# The full ranking holds about 33,000 sequences; the median of “E-score (-0.5 to 0.5)” is about -0.011, and the highest 2% start at about 0.28. The list shows a part of the results.
# Molecular target: T1, Gcr1 (UniProt P07261)
# T1 sequence: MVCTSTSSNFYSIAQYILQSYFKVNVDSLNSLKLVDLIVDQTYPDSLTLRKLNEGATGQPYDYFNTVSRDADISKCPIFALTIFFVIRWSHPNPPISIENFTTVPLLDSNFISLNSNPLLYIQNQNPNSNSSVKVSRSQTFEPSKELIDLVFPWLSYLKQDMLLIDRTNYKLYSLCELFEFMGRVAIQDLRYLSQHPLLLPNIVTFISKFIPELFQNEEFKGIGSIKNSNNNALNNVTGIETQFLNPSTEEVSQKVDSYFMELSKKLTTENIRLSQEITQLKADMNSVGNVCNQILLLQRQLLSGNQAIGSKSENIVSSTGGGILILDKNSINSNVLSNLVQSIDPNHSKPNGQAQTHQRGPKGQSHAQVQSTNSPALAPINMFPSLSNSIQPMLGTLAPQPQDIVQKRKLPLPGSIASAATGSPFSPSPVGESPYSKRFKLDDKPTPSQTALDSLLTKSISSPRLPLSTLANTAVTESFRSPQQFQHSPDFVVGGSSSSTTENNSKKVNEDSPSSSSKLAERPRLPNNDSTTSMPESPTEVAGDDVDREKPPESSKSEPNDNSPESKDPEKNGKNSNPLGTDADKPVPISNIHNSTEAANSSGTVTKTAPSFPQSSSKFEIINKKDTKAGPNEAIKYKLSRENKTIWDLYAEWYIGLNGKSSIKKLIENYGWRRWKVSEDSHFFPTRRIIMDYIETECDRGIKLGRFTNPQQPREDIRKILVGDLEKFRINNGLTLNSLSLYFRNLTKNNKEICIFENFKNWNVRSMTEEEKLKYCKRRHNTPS
# Test: PBM E-score (8-mer binding enrichment) (E-score (-0.5 to 0.5)); higher = stronger / more preferred TF binding; most listed sequences are background and not binding sites
# Settings: protein concentration: 100 nM; construct: GST-full length
# Method in brief: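 The E-score, a modified Wilcoxon-Mann-Whitney statistic, was computed by the Universal PBM Analysis Suite for every ungapped eight-base word pooled with its reverse complement. Scans behind it were normalised with masliner after bound GST-tagged yeast transcription factors were detected with fluorescent anti-GST. The proteins, at about 100-200 nM, had been applied to universal all-10-mer Agilent arrays made double-stranded by primer extension.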
row,Sequence,PBM E-score
1,GGTTCCTA,0.342
2,TAATGCTA,0.14
3,ACAGTCCA,-0.304
4,CAAGTCAA,-0.0468
5,GATGGGCA,-0.0836
6,AAAGCACC,0.0793
7,CGTATGAG,-0.35
8,ATCTGTGA,0.0268
9,CGCTTCCC,0.273
10,TAGTAGCA,0.255
11,AAAATCTG,0.161
12,ATCTCCAG,0.195
13,GTGGCTCA,-0.145
14,CCGCGGCA,0.0762
15,AGCTTGAG,-0.0513
16,CAACCATG,-0.116
17,CACTGATA,0.0972
18,CCTCAGAA,0.0227
19,CAGGCCTA,-0.0939
20,AGTGCCGC,-0.233
21,ACCTACGA,0.0612
22,CCAGTCGC,0.0545

row,Sequence,PBM E-score
1,CCTCTCCC,-0.162
2,ATCGATGA,-0.202
3,CGTAAGGA,-0.129
4,GTGACGTA,-0.114
5,AGAGTTCG,-0.148
6,AGTTCCAG,0.139
7,CAGACGCA,0.175
8,CATCGATC,-0.217
9,CTAGCGAA,-0.172
10,AGATGAAA,-0.0505
11,GGCGAGCC,-0.0874
12,CGGTAACG,-0.169
13,CGGCCTAA,-0.178
14,CCCCAACA,0.0205
15,CCTGAAGG,-0.0891
16,GCACAAAC,-0.124
17,CGCCCCGA,-0.0435
18,AGGTTAAG,-0.129
19,GATGGGAA,0.123
20,ACATAACT,-0.00162
21,GGTTGACA,0.0705
22,CACACCGA,-0.0514

row,Sequence,PBM E-score
1,CAGGTAAA,-0.0673
2,CAGGGACC,0.0209
3,CGTCGTTC,-0.174
4,ACCAACCA,0.0293
5,ATCGAAGC,0.0574
6,ACAGGGAT,0.133
7,GCTGAGCC,-0.0982
8,AGCTTCAG,-0.19
9,AAGAAAGG,-0.125
10,AGAAAATG,0.172
11,CATGCGAG,0.0316
12,CCATTCAC,-0.052
13,AAAACCCT,-0.0492
14,CCGGGGCA,-0.0316
15,CTTCCGTC,0.0607
16,CATGAGAA,0.0814
17,CCTGGGTA,0.0628
18,CCATGGGA,0.0211
19,AGCCCCAT,0.127
20,CCACCAAA,-0.027
21,ACCAAGAT,0.135
22,AGTGAAGG,-0.108

row,Sequence,PBM E-score
1,ACCGTATG,-0.0243
2,CTTGCTAA,-0.145
3,ACTCGGCG,0.0257
4,CCCATTAC,-0.098
5,GGGCCGAC,-0.178
6,GCTGCTAC,0.249
7,GATACTGA,0.0945
8,CGTTTACA,0.101
9,CCATCTAG,-0.0373
10,CATTCAGG,0.138
11,AATGTGGA,0.221
12,GCCAAAGA,0.155
13,GTGAAGCA,-0.111
14,ATTGCCAA,-0.0899
15,AGAGCGGC,-0.0344
16,ATATGATC,0.0769
17,CATAGGGC,-0.0384
18,GACGGGTA,-0.202
19,ACAGGCAA,0.0089
20,CCTGGGGA,0.0113
21,ATGACTAA,-0.194
22,GAATGCGC,0.164

row,Sequence,PBM E-score
1,CGGTGTGA,-0.114
2,GTAGACAC,-0.063
3,CAAGAGCG,0.0229
4,ACCGATGC,-0.058
5,ACAAGGTA,-0.0513
6,GGATAGCC,-0.0295
7,GCCCCTAC,0.0372
8,AGTTAAAA,-0.0335
9,TCGTAAGA,-0.131
10,GTGTAACA,-0.0191
11,AAGAGAAT,-0.00736
12,ATTGCTAC,0.11
13,CGGGAACC,0.289
14,AAGTGTTC,0.00183
15,AAGTATGA,-0.0833
16,GTAGTCAA,-0.00486
17,CCGAACAC,0.0248
18,ATGACCAA,-0.114
19,CTCCAGCA,-0.103
20,CTGGCCCC,0.13
21,CTACTGGC,0.0475
22,AACACTCG,0.0837
